Measurements: PubChem BioAssay AID1745853 (National Center for Advancing Translational Sciences (NCATS), 2022)
Several values for one entry are separate records, joined by “and”; a condition that tells them apart may be missing. Equal entries are not always repeated. The list shows a part of the results. Shown are side measurements of this screen, not its main read-out; they come without a call.

Legend:
Assay in all cases: Primary Screen for Target Class Profiling of Small Molecule Inhibitors of Methyltransferases
[1] = target: Glycine N-methyltransferase (Homo sapiens) (UniProt Q14749); details: purified enzyme, MTase-Glo SAH luminescence; measured here: GNMT inhibition; at 40 µM; stronger effect = lower value
Summary of the method: (§1)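 Each enzyme was assayed with SAM and its substrate. SAH formation detected by MTase-Glo luminescence; single-point 40 uM screen[…].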

[2] = target: Guanidinoacetate N-methyltransferase (Homo sapiens) (UniProt Q14353); details: purified enzyme, MTase-Glo SAH luminescence; measured here: GAMT inhibition; at 40 µM; stronger effect = lower value
Summary of the method: as §1

[3] = target: Histamine N-methyltransferase (Homo sapiens) (UniProt P50135); details: purified enzyme, MTase-Glo SAH luminescence; measured here: HNMT inhibition; at 40 µM; stronger effect = lower value
Summary of the method: as §1

[4] = target: Nicotinamide N-methyltransferase (Homo sapiens) (UniProt P40261); details: purified enzyme, MTase-Glo SAH luminescence; measured here: NNMT inhibition; at 40 µM; stronger effect = lower value
Summary of the method: as §1

[5] = target: Phenylethanolamine N-methyltransferase (Homo sapiens) (UniProt P11086); details: purified enzyme, MTase-Glo SAH luminescence; measured here: PNMT inhibition; at 40 µM; stronger effect = lower value
Summary of the method: as §1
% is scaled to controls: 0 for no effect and ±100 for the full control effect.

SMILES	activity change, negative = inhibition [1]	activity change, negative = inhibition [2]	activity change, negative = inhibition [3]	activity change, negative = inhibition [4]	activity change, negative = inhibition [5]
CN(C(=O)CN1CCCn2nc(C(=O)NCc3ccc(Cl)cc3)cc2C1=O)c1ccccc1	3.83%	0%	14%	8.54%	7.8%
CCCn1c(=O)c2ccccc2n2c(=O)n(CC(=O)c3ccc(OC)c(OC)c3)nc12	-8.9%	0%	5.27%	4.91%	9.77%
C=CCNC(=O)C[C@@H]1CCN(C(=O)c2ccccc2)C[C@@H]1CC	-1.45%	-2.81%	-3.92%	-5.35%	7.71%
O=C(CCC1CCCC1)N1CC(N(Cc2ccccn2)C(=O)Nc2ccccc2)C1	-1.34%	0.512%	1.33%	-7.76%	2.25%
C=C[C@H]1[C@H](O[C@@H]2O[C@H](CO)[C@@H](O)[C@H](O)[C@H]2O)OC=C(C(=O)OC)[C@H]1CCOC(=O)c1cc(O)c(O)c(O)c1	0%	-1.71%	-1.11%	-13.2%	2.27%
CC(c1ccccn1)N(C)Cc1ccc(S(C)(=O)=O)cc1 (stereo not given)	-5.26%	-15.9%	-3.21%	-13.7%	-4.06%
CO/N=C(/C(=O)N[C@@H]1C(=O)N2C(C(=O)O)=C(CSC(=O)c3ccco3)CS[C@H]12)c1csc(N)n1	-2.66% and -13.1%	0.005% and -12.6%	13.8% and 8.41%	-15.9% and -14.5%	3.5% and -1.06%
CC(=O)NC(C(=O)O[C@H]1CCC(C)(C)[C@@H]2CC=C3C(=O)OCC3(O)[C@@]12C)C(C)C (stereo not given in full)	0%	2.75%	4%	-10%	4.79%
CC1(C(=O)NC2CCCCC2)Cn2c(cc3ccccc32)C(=O)N1Cc1ccccn1 (stereo not given)	-2.11%	7.31%	1.95%	0.7%	0.103%
CCOC(=O)c1cc2n(n1)CC(C)(C(=O)NCc1ccc(Cl)cc1)N(c1ccc(F)cc1)C2=O (stereo not given)	3.09%	3.76%	8.67%	1.11%	3.39%
CCC(=O)N(C1CCOCC1)C1CCN(S(=O)(=O)c2c(C)nn(C)c2C)CC1	-4.02%	0.646%	0.537%	0.649%	0.125%
COC(=O)CNC(=O)N1CCCCCCNC(=O)[C@@H]2C[C@@H](c3nc(-c4cccnc4)no3)C[C@@H]21	-2.49%	-0.271%	0.512%	-3.69%	-1.72%
COc1cccc(N2CCN(S(=O)(=O)c3cc4[nH]c(=O)[nH]c4cc3Br)CC2)c1	12.1%	0.702%	10.6%	2.09%	4.75%
CC1CCC(NC(=O)C2(C)Cn3c(cc4occc43)C(=O)N2CCCN2CCCCC2)CC1 (stereo not given)	7.37%	0%	3.29%	8.92%	4.24%
COCCNC(=O)[C@H]1C[C@H](Oc2cccnc2)CN1C(=O)Nc1cccc(C)c1	-3.56%	-4.07%	-1.33%	-2.28%	-0.696%
COc1ccc(-c2cc3n(n2)CC(C)(C(=O)NCc2ccccc2)N(CCc2ccc(SC)cc2)C3=O)cc1 (stereo not given)	4.13%	0%	3.9%	5.38%	-0.555%
CC(O)C1NC(=O)C2CCCN2C1=O (stereo not given)	2.57%	4.22%	10.2%	-7.49%	-3.26%
CN(Cc1ccccc1)C(=O)CCc1nc(C2CCCN2C(=O)C2CCC2)no1 (stereo not given)	-1.7%	-0.294%	0.682%	-3.1%	10.5%
CN(C(=O)CCCOc1ccc2[nH]c(=O)ccc2c1)C1CCCCC1	-0.242%	11.1%	-11.8%	-9.5%	5.92%
CC(C)CCn1c(=O)c2ccccc2n2c(SCC(=O)Nc3ccc(Cl)cc3)nnc12	-0.976%	2.96%	3.67%	-8.34%	-1.72%
CCOC(=O)C1CCCN(C(=O)c2cc(-c3ccc(Cl)cc3Cl)c3nncn3n2)C1 (stereo not given)	-5.5%	-5.68%	-2.17%	-9.23%	-12.2%
CC1(C(=O)NC2CCCCC2)Cc2ccccc2C(=O)N1CCc1ccccc1 (stereo not given)	-3.99%	1.02%	6.67%	0.69%	1.66%
Cc1ccccc1NC(=O)c1cc2n(n1)CC(C)(C(=O)NC1CCCCCC1)N(C)C2=O (stereo not given)	5.01%	0.99%	6.08%	9.28%	2.98%
CN1C(=O)c2cc(C(=O)NCc3ccccc3Cl)nn2CC1(C)C(=O)NC1CCCCCC1 (stereo not given)	4.5%	6.06%	9.3%	9.1%	2.96%
CC/C=C\C(O)C(O)C1=C(C)C(=O)C2(O1)C(=O)NC(OC)(C(=O)c1ccccc1)C2O (stereo not given)	0%	-6.2%	3.4%	-18.5%	0.245%
CCC(C)NC(=O)c1ccc2c(=O)n(Cc3ccccc3)c3nn(CC(N)=O)c(=O)n3c2c1 (stereo not given)	-0.484%	2%	-4.12%	-5.69%	0.526%
O=C(CN1C(=O)C(c2ccccc2)=NC12CCCCCC2)NCC1CCCO1 (stereo not given)	-1.32%	-2.74%	0.095%	-1.76%	-0.509%
O=c1ncn(Cc2ccccc2)c2ccc(-c3ccoc3)nc12	-26.3%	-8.72%	-3.71%	-14.1%	-6.4%
CC(C)CCn1c(=O)c2ccccc2n2c(=O)n(Cc3ccccc3Cl)nc12	1.83%	1.13%	1.88%	-4.11%	2.24%
CC1CCN([C@@H]2[C@H](O)[C@H](CO)O[C@@H]2CNC(=O)c2cccs2)CC1	-2.01%	2.4%	0.329%	0.6%	13.5%
